The whole screen tested about 420,000 compounds, of which about 50,000 (12%) were called active. The shares of active, inactive and inconclusive entries below differ from those in the screen. The call rests on the fitted dose curve; in most records, active means well fitted inhibition curve with a large enough effect; inconclusive means small, poorly fitted or top-dose-only effect; inactive means flat fitted curve, though single readings scatter. No potency is given beside an inconclusive call; the fits are too rough.
Assay: qHTS for Inhibitors of human tyrosyl-DNA phosphodiesterase 1 (TDP1): qHTS in cells in presence of CPT; further: nearly all actives have a fitted effect of over 55% in size
Conditions: chicken DT40 Tdp1-/-;hTDP1 cells + 20 nM CPT, ATP luminescence, 48 h; activity change, negative = growth inhibition: at 46.2 µM (top of the series) unless noted
In short: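 Cell growth measured by CellTiter-Glo luminescence after a minimum 48 h, 37 C compound exposure with 20 nM CPT in Tdp1-knockout DT40 cells stably expressing hTDP1, seeded 400/well; qHTS titration format.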
With CCCn1c(SCC(=O)Nc2ccccc2-c2ccccc2)nnc1-c1ccoc1C the Potency was active: 16.4 µM.
For COCCCNC(=O)c1cc2cc(S(=O)(=O)N3CCCCC3)ccc2n1C, the Potency was inconclusive [inhibitor, single point].
For COc1ccc([N+](=O)[O-])cc1NC(=O)C(C)N1CCN(C(=O)c2ccco2)CC1 (stereo unspecified), the Potency was inconclusive [inhibitor, single point].
For CCOC(=O)c1sc(N)c(C(=O)OCC)c1COC(=O)C1CC(=O)N(Cc2ccco2)C1 (stereo unspecified), the “activity change, negative = growth inhibition” value was inactive: 1.57%.
For CC1CCN(C(=O)C2(NC(=O)Nc3cccc(F)c3)CCCCC2)CC1, the “activity change, negative = growth inhibition” value was inactive: 5.86%.
For CCN(CC)S(=O)(=O)c1cccc(NC(=O)CNC2CCCCCC2)c1, the Potency was inconclusive [inhibitor, single point].
With CCN(C[C@H]1N[C@@](CC)(C(=O)OC)[C@H]2C(=O)N(C)C(=O)[C@@H]12)S(=O)(=O)c1ccc(OC(F)(F)F)cc1 the Potency was inconclusive [inhibitor, single point].
With Oc1ccc(-c2nnc(Nc3cccc(O)c3)c3ccccc23)cc1 the “activity change, negative = growth inhibition” value was inactive: -29.3%.
In the case of COc1ccccc1N1C(=O)CC1(C#N)c1ccc(OCc2ccccc2)cc1 (stereo unspecified), the Potency is reported as inconclusive [inhibitor, single point].
For CCOc1ccc(N(CC(=O)Nc2ccccc2OC)S(C)(=O)=O)cc1, the Potency was inconclusive [inhibitor, single point].
With CCOC(=O)N1CCC(NC(=O)COc2cc(=O)n(C)c3ccccc23)CC1 the Potency was inconclusive [inhibitor, single point].
For O=C(CC1C(=O)NCCN1Cc1c(F)cccc1Cl)NCCCOc1cccnc1 (stereo unspecified), the “activity change, negative = growth inhibition” value was inactive: -4.52%.
With COc1ccc(-c2cnc3c(NC=O)cc(-c4ccc(S(C)(=O)=O)cc4)cn23)cc1OC the Potency was active: 2.91 µM.
For COc1cc2c[n+](C)c3c4ccccc4ccc3c2cc1OC, the Potency was active: 1.03 µM.
In the case of Oc1ccccc1-c1nc2ccccc2nc1-c1ccccc1, the Potency is reported as inconclusive [inhibitor, partial curve].
In the case of COc1ccc(OC)c(N2Cc3cc(C)c(C)cc3C2)c1, the Potency is reported as inconclusive [inhibitor, single point].
With COc1ccc(/C(C)=N/NS(=O)(=O)c2ccccc2)c(OC)c1 the Potency was inconclusive [inhibitor, partial curve].
In the case of Cc1cc(NC(=O)C(C)SCC(=O)Nc2ccccc2N2CCCC2)no1 (stereo unspecified), the Potency is reported as inconclusive [inhibitor, single point].
In the case of Cc1cnc(CNc2ncncc2-c2ccccc2C(F)(F)F)cn1, the Potency is reported as inconclusive [inhibitor, single point].
For Cc1[nH]c2ccccc2c1/C=N/Nc1nc2ccccc2[nH]1, the Potency was inconclusive [inhibitor, single point].
For COCCCN(CC(=O)O)S(=O)(=O)c1cccc(Cl)c1, the “activity change, negative = growth inhibition” value was inactive: -1.66%.
In the case of CSc1cc(-c2ccc(Cl)cc2)c(C(=O)NN)s1, the “activity change, negative = growth inhibition” value is reported as inactive: -13.9%.
With O=C(Nc1ccc(Cl)cc1C(F)(F)F)c1cc(S(=O)(=O)N2CCOCC2)ccc1F the Potency was inconclusive [inhibitor, partial curve].
With Nn1cc(-c2ccccc2)nc1SCC(=O)NCCN1C(=O)CSC1=O the “activity change, negative = growth inhibition” value was inactive: -5.08%.
With CN(CC(=O)Nc1cccc(F)c1)C(=O)c1ccc(OCc2cn3ccccc3n2)cc1 the Potency was inconclusive [inhibitor, single point].
With Cc1cc(C)cc(Nc2c(F)c(F)c(F)c(F)c2C(=O)O)c1 the Potency was inconclusive [inhibitor, single point].
With O=C(COC(=O)c1ccc(Cl)nc1)NC1CCCc2ccccc21 (stereo unspecified) the “activity change, negative = growth inhibition” value was inactive: -16.6%.
In the case of O=C(NCc1ccccn1)c1cc(Br)ccc1Cl, the “activity change, negative = growth inhibition” value is reported as inactive: -2.09%.
For COC(=O)c1ccccc1NC(=O)C1CCN(S(=O)(=O)c2cc(OC)ccc2OC)CC1, the Potency was active: 23.1 µM.
In the case of Nc1c(N2CCN(c3ccccc3)CC2)c2ccccc2oc1=O, the activity change, negative = growth inhibition is reported as inconclusive: -32.3% [inhibitor].
With CC1CCCCN1CCCNC(=O)c1ccc2nc(N3CCCCC3)sc2c1 (stereo unspecified) the Potency was inconclusive [inhibitor, single point].
With CC(/C=C1\SC(=S)N(CCC(=O)Nc2ccccc2O)C1=O)=C\c1ccccc1 the Potency was inconclusive [inhibitor, single point].
With Cn1c(O)c(N=NC(=O)c2cc(-c3cccs3)nc3ccccc23)c2ccccc21 the Potency was inconclusive [inhibitor, single point].
In the case of CCN1C(=O)C(CC(=O)Nc2ccc(OC)cc2)N(CCc2ccc(OC)cc2)C1=S (stereo unspecified), the Potency is reported as inconclusive [inhibitor, single point].
In the case of COC(=O)C1=CN(C)C=C(C(=O)OC)C1c1ccsc1, the “activity change, negative = growth inhibition” value is reported as inactive: -3.15%.
With COc1ccc(S(=O)(=O)N2CCCC(C(=O)NCCC3=CCCCC3)C2)cc1 (stereo unspecified) the “activity change, negative = growth inhibition” value was inactive: -7.05%.
In the case of N/C(=N\N=C\c1ccc(Cl)cc1)N/N=C/c1ccc(Cl)cc1, the Potency is reported as inconclusive [inhibitor, single point].
For Cc1c(Br)c(C(F)(F)F)nn1CC(=O)NCc1ccccc1, the “activity change, negative = growth inhibition” value was inactive: -1.08%.
With Cc1ccc(C2C(C#N)=C(N)N(c3ncn[nH]3)C3=C2C(=O)CC(C)(C)C3)cc1 (stereo unspecified) the “activity change, negative = growth inhibition” value was inactive: 12.1%.
With CC(=O)c1cc(-c2ccccc2)n(CCC(=O)NC(C)c2ccccc2)c1C (stereo unspecified) the Potency was inconclusive [inhibitor, single point].
With COc1ccc(C(O)P(=O)(OCC(C)C)c2ccc(N(C)C)cc2)c(OC)c1 (stereo unspecified) the “activity change, negative = growth inhibition” value was inactive: -23.1%.
For CC(=O)N1CCC(C(=O)N2CCN(S(=O)(=O)c3ccc(Cl)s3)CC2)CC1, the “activity change, negative = growth inhibition” value was inactive: -29.3%.
In the case of O=C(COC(=O)c1ccc(OC(F)F)cc1)NCCC1=CCCCC1, the “activity change, negative = growth inhibition” value is reported as inactive: -0.633%.
In the case of O=C1NC[C@H](CCCCN2C[C@H](Cc3ccc(O)cc3)N(CCc3ccc(O)cc3)C(=O)C2=O)N(Cc2ccccc2)C1=O, the “activity change, negative = growth inhibition” value is reported as inactive: -4.6%.
In the case of Cc1ccc(S(=O)(=O)N2CCC(=O)N([C@H](COCc3ccccc3)Cc3ccccc3)CC2)cc1, the Potency is reported as inconclusive [inhibitor, single point].
With Cc1ccccc1Cn1c2ccccc2c2cnn(CC(=O)NCCCN3CCOCC3)c(=O)c21 the Potency was inconclusive [inhibitor, partial curve, poor fit].
On the % scale 0 is the no-effect control and ±100 the full control effect; potency means the concentration at half of the fitted maximal effect; tags describe the fitted curve by direction and shape.
